In all, about 33,000 sequences were measured (“E-score (-0.5 to 0.5)”: median about -0.043, highest 2% from about 0.37 on). The list shows a part of the results.
molecular target: T1, Upc2 (UniProt Q12151); experiment: PBM E-score (8-mer binding enrichment) (E-score (-0.5 to 0.5)); higher = stronger / more preferred TF binding; most listed sequences are background and not binding sites; settings: protein concentration: 200 nM; construct: GST-full length
T1 sequence: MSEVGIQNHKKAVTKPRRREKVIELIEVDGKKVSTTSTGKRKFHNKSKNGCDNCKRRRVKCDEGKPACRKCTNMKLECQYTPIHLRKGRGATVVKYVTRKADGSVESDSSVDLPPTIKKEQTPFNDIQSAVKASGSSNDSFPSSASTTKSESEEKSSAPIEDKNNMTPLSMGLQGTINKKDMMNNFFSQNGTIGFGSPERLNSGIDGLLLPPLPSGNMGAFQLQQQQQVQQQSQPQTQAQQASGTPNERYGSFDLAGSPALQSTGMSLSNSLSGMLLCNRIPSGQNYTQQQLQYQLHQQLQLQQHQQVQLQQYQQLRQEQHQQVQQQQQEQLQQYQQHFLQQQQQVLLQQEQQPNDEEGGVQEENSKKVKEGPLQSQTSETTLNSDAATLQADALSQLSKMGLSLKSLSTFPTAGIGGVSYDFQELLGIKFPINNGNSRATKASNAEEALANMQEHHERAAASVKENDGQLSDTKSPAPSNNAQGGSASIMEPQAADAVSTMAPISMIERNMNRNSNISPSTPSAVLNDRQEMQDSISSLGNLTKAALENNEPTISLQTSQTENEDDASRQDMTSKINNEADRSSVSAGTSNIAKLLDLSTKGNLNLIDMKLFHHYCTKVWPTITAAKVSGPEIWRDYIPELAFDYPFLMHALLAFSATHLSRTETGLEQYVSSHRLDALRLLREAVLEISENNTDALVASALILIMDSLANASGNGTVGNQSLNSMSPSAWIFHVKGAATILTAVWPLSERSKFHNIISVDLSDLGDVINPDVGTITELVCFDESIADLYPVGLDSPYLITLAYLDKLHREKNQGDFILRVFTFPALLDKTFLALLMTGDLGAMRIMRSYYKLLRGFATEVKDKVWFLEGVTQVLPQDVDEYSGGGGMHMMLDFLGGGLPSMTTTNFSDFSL
In short: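 Full-length yeast transcription factors or their DNA-binding domains, GST-tagged and expressed with PURExpress, were applied at about 100-200 nM to universal all-10-mer Agilent arrays. These arrays had been made double-stranded by primer extension on fresh or once-stripped slides. Detection used fluorescent anti-GST, normalisation used masliner, and E-scores for ungapped eight-base words pooled with reverse complements came from the Universal PBM Analysis Suite.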

| Sequence | PBM E-score |
| --- | --- |
| CGACAGTC | 0.043 |
| CGAGAGTA | 0.152 |
| AGCAGCTG | -0.131 |
| AAACCGTT | 0.124 |
| GTAGGCGA | -0.0376 |
| GTAGCCAA | -0.0241 |
| CCAGAGAG | -0.321 |
| CGCTGGCC | -0.107 |
| AGGATGGC | -0.162 |
| ACACTCCG | 0.079 |
| CAGAGTGA | -0.0649 |
| AACTCGAT | 0.0481 |
| AAGACCAC | -0.255 |
| CTCATTGA | -0.141 |
| CAGTGTGC | -0.155 |
| ATAAGATA | 0.146 |
| GGGGTTTA | -0.156 |
| ACCCTACT | -0.252 |
| AAGGGGCA | -0.104 |
| ATTATGGA | -0.02 |
| AAATGGGT | -0.0142 |
| CTGATCTC | -0.0129 |

| Sequence | PBM E-score |
| --- | --- |
| CAAATCTC | -0.0575 |
| GCACAACC | -0.205 |
| CAGTTGCC | -0.125 |
| CAAGCTGA | -0.241 |
| CTTCCTTA | 0.0293 |
| CCCTGTGC | -0.0603 |
| GATGTTGA | -0.0812 |
| CCGGGGGA | -0.376 |
| AGACAGGA | -0.105 |
| GAGGCATC | -0.047 |
| ATCGCTGC | -0.164 |
| ATGCAATG | -0.16 |
| GAAACGCC | 0.0519 |
| AGTTTCGG | 0.0223 |
| TGCAGCAA | 0.121 |
| CTGGGATC | -0.194 |
| GCCCGGAA | 0.0482 |
| ACGTCCTG | -0.0564 |
| CAGAATAG | 0.00039 |
| CATTATAC | 0.266 |
| CTCATTCA | -0.196 |
| GCGTTGGA | -0.276 |

| Sequence | PBM E-score |
| --- | --- |
| ATGAGCCC | -0.12 |
| CCAGCCTC | -0.128 |
| CTTAAGAA | 0.0691 |
| GAGCCTGC | -0.051 |
| AAACGGAC | 0.337 |
| TAAAGCCA | 0.0825 |
| CCAAGTCC | -0.0936 |
| TCATGTCA | -0.251 |
| AAGGCGCC | -0.0908 |
| CCAGTGAG | -0.322 |
| CCTGTCCA | -0.214 |
| AATCGTCC | -0.0549 |
| CTAACATC | -0.132 |
| ACAAGGCT | -0.212 |
| CCACCGCG | 0.129 |
| TACGTCGA | 0.243 |
| TACTCCGA | -0.127 |
| GCGGCGAC | -0.106 |
| ACAACCAC | -0.127 |
| CCACCGGA | 0.0727 |
| ATCATTGC | -0.208 |
| ATGGATTA | -0.36 |

| Sequence | PBM E-score |
| --- | --- |
| ACATGGCT | -0.0164 |
| CCTCATAA | -0.134 |
| AGTTGGTG | -0.0572 |
| AATTGGGT | -0.00338 |
| GAGAGATC | -0.0846 |
| TCGATGCA | -0.311 |
| AAATCGAC | 0.0518 |
| AAACGCTC | 0.28 |
| CGTAGCAC | 0.268 |
| ATCGCCCA | -0.2 |
| CTGACGTC | -0.0271 |
| AGACAAGC | -0.146 |
| CTTCGGAC | 0.0731 |
| TGATACCA | 0.00459 |
| CCCTCGGA | 0.195 |
| CAGGCCGA | -0.137 |
| ACAACGAT | 0.0582 |
| CTTCTCAC | -0.111 |
| CGACCCAG | 0.0427 |
| AGCCGGCG | -0.0307 |
| ACACGACA | 0.221 |
| TCCGTAAA | 0.357 |

| Sequence | PBM E-score |
| --- | --- |
| GTAGAGCA | -0.15 |
| ACTCTGGG | -0.181 |
| AGCGCTCG | 0.0458 |
| CCTCGCAC | 0.242 |
| TCTGACCA | -0.01 |
| CGCGGTAG | -0.0437 |
| GCTACAGA | -0.142 |
| CCTGACCA | -0.0686 |
| CAGACTTA | -0.00925 |
| GCGACAAA | 0.00573 |
| ACACTGAA | 0.116 |
| ATCTCAAA | -0.0146 |
| GATATCAA | -0.0695 |
| GAACTGCA | -0.0845 |
| TGTGGCAA | -0.137 |
| GACTCCAA | -0.0615 |
| CAAGACTA | -0.17 |
| CATGGGAG | -0.106 |
| GCGGTAAA | 0.184 |
| CCCGCCCG | 0.178 |
| ACCTCCCC | -0.124 |
| ATACCTCC | -0.133 |

Source: the supplement of paper PMC3334620
